Experimental data from the BET-seq Pho4 binding data (Le et al. 2018).
The other results are listed elsewhere or left out. Values were computed here from the reads of four pooled replicates and scatter widely.

Molecular target: T1, Pho4 (S. cerevisiae) (UniProt P07270)
T1 sequence: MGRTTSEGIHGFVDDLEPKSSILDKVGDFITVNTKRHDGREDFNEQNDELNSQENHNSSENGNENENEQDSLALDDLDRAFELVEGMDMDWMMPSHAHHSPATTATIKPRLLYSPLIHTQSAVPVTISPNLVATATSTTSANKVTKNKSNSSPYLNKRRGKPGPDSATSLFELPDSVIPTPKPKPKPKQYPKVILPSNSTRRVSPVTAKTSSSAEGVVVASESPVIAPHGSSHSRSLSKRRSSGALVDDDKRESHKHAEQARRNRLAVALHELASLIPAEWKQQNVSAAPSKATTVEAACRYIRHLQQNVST
Experiment: relative binding free energy (BET-seq); higher = weaker binding
Details: reference: library average

| Sequence | relative binding free energy |
| --- | --- |
| TGTGTCACGTGAGGGG | 0.3 kcal/mol |
| TAGAGCACGTGAATGA | 0.24 kcal/mol |
| GGTTACACGTGGCAGT | 0.01 kcal/mol |
| ACGTTCACGTGGGTGG | 0.2 kcal/mol |
| TCAGTCACGTGTATTG | -0.04 kcal/mol |
| TTGTTCACGTGTGCCT | 0.2 kcal/mol |
| TATGACACGTGTTTTA | -0.23 kcal/mol |
| GTGGACACGTGGTAGT | -0.04 kcal/mol |
| TCAAGCACGTGGGATG | -0.18 kcal/mol |
| CTTTTCACGTGGTTGG | 0.27 kcal/mol |
| AGGTTCACGTGTTTGT | 0.19 kcal/mol |
| GTGAACACGTGTGGAT | 0.08 kcal/mol |
| GGGGGCACGTGCAAAG | -0.11 kcal/mol |
| TATAGCACGTGCTTTG | -0.18 kcal/mol |
| GTTTTCACGTGGGATG | 0.33 kcal/mol |
| AAATGCACGTGTGGCT | -0.08 kcal/mol |
| AGAGTCACGTGTTATG | 0.13 kcal/mol |
| GCTTTCACGTGTGTAA | 0.25 kcal/mol |
| TGGAGCACGTGGATCG | -0.05 kcal/mol |
| TAGTTCACGTGTGGGC | 0.28 kcal/mol |
| TTGGTCACGTGTAGTA | 0.13 kcal/mol |
| ATTTACACGTGTACGG | 0.2 kcal/mol |
| AGGTCCACGTGCGCGG | 0.01 kcal/mol |
| CTGGTCACGTGTTATT | 0.22 kcal/mol |
| GTATACACGTGGGCAG | -0.04 kcal/mol |
| TGGGGCACGTGAGCAG | 0.02 kcal/mol |
| ATCGGCACGTGGGGCA | -0.21 kcal/mol |
| TCGGACACGTGAGGTT | 0.45 kcal/mol |
| TTGTTCACGTGAGACG | 0.52 kcal/mol |
| AGGATCACGTGCGTAT | 0.18 kcal/mol |
